Results from patent US20230122503A1, “ANTI-PSMA RADIOCONJUGATES AND USES THEREOF” (Janssen Biotech, Inc., priority 2021, published 2023).

B1: PSMB1113 (antibody)
heavy: EVQLVESGGGLVKPGGSLRLSCAASGFTLSIYSMNWVRQAPGKGLEWVSSISSSSSYIFYADSVKGRFTISRDNAKNSLFLQMNSLRAEDTAVYYCARSSYGADYWGQGTLVTVSS[human IgG1 constant region not given here]
light: EIVMTQSPSSLSASVGDRVTITCRASQDITNFLAWYQQKPGKVPKLLIYTASTLQSGVPSRFSGSGSGTDFTLTISSLQPEDVATYYCQKYNSAPLTFGGGTKLEIKRTVAAPSVFIFPPSDEQLKSGTASVVCLLNNFYPREAKVQWKVDNALQSGNSQESVTEQDSKDSTYSLSSTLTLSKADYEKHKVYACEVTHQGLSSPVTKSFNRGEC
B2: PSMB1195 (antibody)
heavy: EVQLVESGGGLVKPGGSLRLSCAASGFTFSSYSLNWVRQAPGKGLEWVSSISSSSSYISYADAVKGRFTISRDNAKNSLYLQMNSLRAEDTAVYYCARDRGFLEDYYYYYGMDVWGQGTTVTVSS[human IgG1 constant region not given here]
light: DIVMTQSPSSVSASVGDRVTITCRASQGISNWLAWYQQKPGKAPKLLIYVASSLQSGVPSRFSGSGSGTDFSLTISSLQPEDFATYYCQQAYSFPLTFGGGTKVEIKRTVAAPSVFIFPPSDEQLKSGTASVVCLLNNFYPREAKVQWKVDNALQSGNSQESVTEQDSKDSTYSLSSTLTLSKADYEKHKVYACEVTHQGLSSPVTKSFNRGEC

Legend:
[1] = SE HPLC of purified antibodies (% monomer post protein A); format: physicochemical; details: post protein A purification
Method: SE HPLC of the purified antibodies was performed by running samples on a TOSOH TSKgel BioAssist G3SWxl column, in 0.2 M Na Phosphate pH 6.8 at 1 mL/min on a Waters Alliance HPLC for 20 min. The column effluent was monitored by absorbance at 280 nm. For a molecule to be considered a therapeutic lead, it is critical that it can be produced in substantial amounts with high purity and high yield. Typically, purification losses are higher, and yields are lower with aggregation-prone proteins. The initial monomer percentage is generally considered a good surrogate indicator of the manufacturability of a protein.

[2] = biological target: T1, recombinant human ECD (human PSMA) (Homo sapiens, UniProt Q04609); assay: SPR (BIACORE 8K) binding of anti-PSMA antibodies to recombinant human PSMA ECD; details: antibody captured on anti-Fc C1 chip, PSMA antigen titrated, 1:1 Langmuir model
T1 construct: made in house
T1 sequence (Q04609 with tags, fused parts or gaps): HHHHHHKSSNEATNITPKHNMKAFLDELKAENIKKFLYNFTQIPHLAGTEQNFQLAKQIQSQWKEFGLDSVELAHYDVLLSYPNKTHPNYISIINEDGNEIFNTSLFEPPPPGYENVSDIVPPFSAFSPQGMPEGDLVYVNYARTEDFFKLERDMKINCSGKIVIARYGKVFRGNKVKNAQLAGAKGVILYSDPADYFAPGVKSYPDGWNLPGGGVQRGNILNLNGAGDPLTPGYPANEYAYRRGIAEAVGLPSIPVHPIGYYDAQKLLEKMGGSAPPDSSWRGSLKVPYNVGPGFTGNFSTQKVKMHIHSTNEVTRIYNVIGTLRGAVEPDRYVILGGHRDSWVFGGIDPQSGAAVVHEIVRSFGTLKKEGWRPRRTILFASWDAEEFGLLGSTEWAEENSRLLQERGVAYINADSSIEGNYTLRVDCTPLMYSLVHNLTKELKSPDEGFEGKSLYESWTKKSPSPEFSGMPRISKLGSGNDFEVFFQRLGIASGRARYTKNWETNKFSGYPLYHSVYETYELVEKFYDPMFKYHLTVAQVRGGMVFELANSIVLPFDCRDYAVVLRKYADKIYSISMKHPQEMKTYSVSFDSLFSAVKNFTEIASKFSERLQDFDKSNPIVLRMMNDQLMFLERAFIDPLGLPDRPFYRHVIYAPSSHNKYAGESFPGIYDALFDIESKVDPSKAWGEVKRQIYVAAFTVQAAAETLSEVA
Method: The binding affinity of purified anti-PSMA antibodies to the recombinant human ECD was determined by surface plasmon resonance (SPR) using a BIACORE 8K instrument. The antibodies were captured on a goat anti-Fc antibody-modified C1 chip and titrated with 3-fold serial dilutions of PSMA antigen spanning concentrations of 1 nM to 11.1 nM. The association and dissociation were monitored for 3 and 15 minutes, respectively, using a flow rate of 50 μL/min. Raw binding data was referenced by subtracting the analyte binding signals from blanks and analyzed using a 1:1 Langmuir binding model using the Biacore Insight evaluation software to obtain the kinetics which were used to calculate the binding affinity.

[3] = Thermal stability by nanoDSF (Tm, Tagg); format: physicochemical; details: 20° C. to 95° C. at 1.0° C./minute
Method: The thermal stability (conformational stability) of the anti-PSMA antibodies was determined by nanoDSF method using a Prometheus instrument. Measurements were made by loading sample into 24 well capillary from a 384 well sample plate. Duplicate runs were performed. The thermal scans span from 20° C. to 95° C. at a rate of 1.0° C./minute. The data was processed to obtain integrated data and first derivation analysis for 330 nm, 350 nm, Ratio 330/350, and scatter data from which thermal transitions, onset of unfolding, Tm and Tagg were obtained.
“Tm” or “mid-point temperature” is the temperature midpoint of a thermal unfolding curve. It refers to the temperature where 50% of the amino acid sequence is in its native conformation and the other 50% is denatured. A thermal unfolding curve is typically plotted as a function of temperature. Tm is used to measure protein stability. […] The Tm can be readily determined using methods well known to those skilled in the art such as Circular Dichroism Spectroscopy, Differential Scanning Calorimetry, Differential Scanning Fluorimetry (both intrinsic and extrinsic dye based), UV spectroscopy, FT-IR and Isothermal Calorimetry (ITC).
“Tagg” refers to the temperature at which the protein starts to aggregate either through dimerization or oligomerization. The aggregation temperature detects the onset of aggregation, the temperature at which a protein will show a tendency to aggregate. Tagg can be determined by differential scanning calorimetry (DSC), Differential Scanning Fluorimetry (DSF) or by circular dichroism (CD). These techniques can detect small changes in the conformation of the protein and therefore detect the starting point of aggregation. Tagg values can be lower or higher than Tm. In cases where Tagg is lower than Tm, the protein either dimerizes and/or oligomerizes first and then starts unfolding later at higher temperatures than the Tagg. In cases where Tagg is higher than Tm, the protein starts to unfold first and then aggregates at a higher temperature than the Tm. Both events are commonly observed and depend on amino acid composition and protein conformation.
Thermal unfolding parameters, Tm or midpoint temperature of thermal unfolding and Tagg or aggregation temperature of selected anti-PSMA antibodies are shown in Table 23.

[4] = test system: C4-2b cells, a cell line with high PSMA expression; assay: Cytotoxicity of MMAF-conjugated anti-PSMA antibodies on C4-2B cells (Cell Titer Glo, 72h); format: cell-based, human; details: MMAF-conjugated antibody, DAR ~4.0, 72h, read-out: Cytotox (IC50) C4-2B, DAR ~4.0
Method: mAbs were conjugated to a monomethyl auristatin F (MMAF) payload in a 96-well format to enable screening for optimal ADC candidates. 220 ug of each mAb (1 mg/mL in dPBS) was mixed with TCEP to a final concentration of 3 mM and incubated at 37° C. for 1r. Reduced mAbs were captured on protein A resin (Protein A HP Multitrap, GE) and washed 3× with 100 mM potassium phosphate containing 2 mM EDTA at pH 7.5 to remove TCEP.
A mixture of maleimide-PEG4-vcPAB-MMAF and N-ethyl maleimide (60:40 molar ratio, 100 uM total in 100 mM potassium phosphate containing 2 mM EDTA at pH 7.5) was prepared and the resin with bound mAb was resuspended in 300 uL of the maleimide mixture. Samples were rotated for 1 hr at RT followed by quenching with N—Ac-L-Cys (2.6 mM final). […] ADC concentrations and DAR (panel average of 4.0±0.5) of the eluted ADCs were determined by UV-Vis spectrophotometry at 248 and 280 nm based on previous reports (Hamblett, et. al., (2004) Clinical Cancer Research, 10, 7063-7070; Cruz and Kayser (2009) Cancers 11(6), 870)
C4-2b cells, a cell line with high PSMA expression, were cultured in RPMI1640 containing GlutaMAX, 25 mM HEPES and 10% fetal bovine serum (FBS) and then plated in white 96 well plates at 3000 cells per well (60 uL/well). […] Following 72h of treatment, cell viability was assessed by Cell Titer Glo (Promega), according to manufacturer's instructions. […]

Molecule	SEC (% monomer post protein A) [1]	Koff [2]	Kon [2]	Fab Tm [3]	Tagg [3]	IC50 [4]
B1	96.7%	6.65e-05 s⁻¹	57300 M⁻¹ s⁻¹	72.0 °C	73.2 °C	75.5 pM
B2	97.4%	0.000101 s⁻¹	10700 M⁻¹ s⁻¹	80.0 °C	79.6 °C	166 pM
